Screen size: about 48,000 compounds; about 120 (0.25%) were called active. Inconclusive results (about 4%) are left out. Calls follow the shape of the dose curve; as a rule, active = well fitted activation curve with a large enough effect; inconclusive = small, poorly fitted or top-dose-only effect, or another doubt; inactive = no such curve, though single readings can be large or run the other way. The list shows a part of the results.
Potency is read from the fitted curve at half-maximal effect.

The nature of this assay: Primary qHTS for Identification of Small Molecule Activators of Huntingtin-Antisense Promoter Activity. Also: nearly all actives have a fitted effect of over 55% in size. The note with it: HEK293 HTT-AS promoter firefly luciferase reporter (activity 0% = vehicle and -100% = no light), 24 h; series mostly up to 57.5 µM; activity change, positive = activation: at the top concentration. The method in brief: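 Quantitative HTS used concentration series of up to 57.5 uM final on HEK293 luciferase reporter cells, 24 h at 37 degrees C. Readout was Dual-Glo firefly luminescence.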
For `Cc1ccc(N(CC(=O)N2CCN(c3cc(C)ccc3C)CC2)S(=O)(=O)c2c(C)nn(C)c2C)cc1`, the “activity change, positive = activation” value is inactive: -44.2%. `Cc1ccc(CN(C(=O)c2ccc(OCC(C)C)cc2)c2ccccn2)o1`: the “activity change, positive = activation” value was inactive: 4.74%.

Regarding `CCOC(=O)c1noc2nc(C)n(CC(=O)Nc3cccc(OC)c3)c(=O)c12`, the “activity change, positive = activation” value is inactive: -13%. Still for that read-out and setting: the same measure for `CCCCN(CC)C(=O)CSc1nc2n[nH]c(C)c2c(=N)n1-c1ccc(CC)cc1`: inactive: -43.6%. In the case of `CCOc1ccc(-c2cccc(NS(=O)(=O)c3ccc(C)s3)c2)nn1`, the “activity change, positive = activation” value was inactive: -15.4%.

In the case of `COc1ccc(NC(=O)CSc2ncc3c(n2)-c2ccccc2N(Cc2ccc(C)cc2)S3(=O)=O)cc1Cl`, the “activity change, positive = activation” value was inactive: -42%. Regarding `Cc1ccc(N(C)C(=O)c2sc3nc4n(c(=O)c3c2C)CCCC4)cc1C`, the “activity change, positive = activation” value was inactive: -17.9%. Still for that read-out and setting: for `COCCCn1c(=O)c2sccc2n2c(CCCC(=O)NCc3cccc(OC)c3)nnc12` the value was inactive: 1.13%; for `CN(C)CC[C@@H](c1ccc(Cl)cc1)c1ccccn1`, inactive: -0.476%. Consider `CCN1C(=O)c2ccccc2S(=O)(=O)c2ccc(C(=O)NCc3ccccc3)cc21`, for which the “activity change, positive = activation” value was inactive: -20.2%. Take `O=C(CSc1ncc(-c2ccccc2)[nH]1)Nc1ccccc1`: the “activity change, positive = activation” value is inactive: 9.9%. For `CCOC(=O)C1CCN(C(=O)c2ccccc2NC(=O)c2nsc3ccccc23)CC1`, the “activity change, positive = activation” value was inactive: -15.6%. With `CCOc1ccc(NS(=O)(=O)c2c(C)nc3sc(C)c(C)n3c2=O)cc1`, the “activity change, positive = activation” value is inactive: -39.3%. Consider `CCOC(=O)C1CCC(CN(Cc2ccc(Cl)cc2)S(=O)(=O)c2cccc(Cl)c2C)CC1` (stereo not drawn), for which the “activity change, positive = activation” value was inactive: -29.6%. On to `Cc1nc2nc(NC(=O)c3ccc(C(C)(C)C)cc3)[nH]n2c(=O)c1C`, for which the “activity change, positive = activation” value is inactive: -5.35%. On to `CCCCOc1ccc(C(=O)Nc2ccc3c(c2)CCCN3C(=O)c2cccs2)cc1`, for which the “activity change, positive = activation” value is inactive: -38.5%. In the case of `O=C(CCC1N=C2c3ccccc3N=C(SCC(=O)Nc3cccc(Cl)c3)N2C1=O)NCc1ccco1` (stereo not drawn), the “activity change, positive = activation” value was inactive: -11.3%. On the same count and under the same terms, the same measure for `NC(=O)C1CCN(S(=O)(=O)c2cc3c(cc2Cl)NC(=O)CO3)CC1`: inactive: -4.6%; for `COC(=O)c1ccccc1NC(=O)[C@H]1O[C@@H]2OC(C)(C)O[C@@H]2[C@H]2OC(C)(C)O[C@H]21`: inactive: -11.8%; for `Cc1cc(C)cc(OCC(=O)Nc2cccc3cccnc23)c1`: inactive: -1.08%. Regarding `CCCCCCC(=O)Nc1ccc2nc3c(=O)n(C)c(=O)n(C)c3nc2c1C`, the “activity change, positive = activation” value is inactive: 0.447%. Consider `CCCc1cnc2c(c1SCC(=O)NCc1ccc(C)cc1)c(=O)n(C)c(=O)n2C`, for which the “activity change, positive = activation” value is inactive: -10.8%.

For `CCOC(=O)c1ccc(N2C(=O)c3n[nH]c(-c4ccco4)c3C2c2ccc(C(=O)OC)cc2)cc1` (stereo not drawn), the “activity change, positive = activation” value was inactive: -39.7%.

As to `CC(=O)Nc1cccc(-c2nc(-c3ccccc3)no2)c1`, the Potency is active: 1.12 µM. Turning to `O=C(c1ccc2c(c1)N(Cc1ccc(Cl)cc1)C(=O)c1ccccc1S2(=O)=O)N1CCCC1`, the “activity change, positive = activation” value was inactive: -40.9%.

As to `COc1ccccc1CCNC(=O)Cc1c(C)c2cc(Cl)c(O)cc2oc1=O`, the “activity change, positive = activation” value was inactive: -8.96%. With `CCCCOc1ccccc1C1CC(=O)Nc2ccc3ccccc3c21` (stereo not drawn), the “activity change, positive = activation” value is inactive: -27.5%. Regarding `CC(C)c1ccc(S(=O)(=O)N2CCN(Cc3cccc(F)c3)CC2)cc1`, the “activity change, positive = activation” value is inactive: -23.9%. On to `CC(=O)OCC(=O)[C@@]1(O)CCC2C3CCC4=CC(=O)CC[C@]4(C)C3[C@@H](O)C[C@@]21C` (stereo partly drawn), for which the “activity change, positive = activation” value is inactive: -15.2%. The same measure, in the same setting: for `CCOc1ccc(CNC(=O)c2oc3c(c2C)-c2nn(Cc4cccc(Cl)c4)cc2CC3)cc1` the value was inactive: -30.7%; for `COc1ccc(C)c2sc(NC(=O)c3ccc(S(=O)(=O)N(C)C)cc3)nc12`, inactive: -1.84%. On the same count and under the same terms, the same measure for `Cc1cc(NC(=O)N2CCC(CN3CCCCCC3)CC2)ccc1Br`: inactive: 17.1%; for `COc1cccc(NC(=O)c2c(C)nn(-c3cccc(C)c3)c2-n2cccc2)c1`: inactive: -21.5%. As to `O=C(Cn1ccc2cc(S(=O)(=O)N3CCCCCC3)ccc21)NCc1ccccc1Cl`, the “activity change, positive = activation” value was inactive: -36.3%. Still for that read-out and setting: for `COC(=O)c1ccc2c(=O)n(CCCCCC(=O)NCCc3ccccc3)c(=O)[nH]c2c1` the value was inactive: 2.95%; for `CN(CCOc1ccc(CC2SC(=O)NC2=O)cc1)c1ccccn1` (stereo not drawn), “inactive”. Still for that read-out and setting: the same measure for `CCC1Sc2ccccc2N(CC(=O)NCc2ccc(C)cc2)C1=O` (stereo not drawn): inactive: 10.4%. In the case of `O=S(=O)(c1ccc(Cl)cc1)c1nnn2c1nc(NC1CCCC1)c1sccc12`, the “activity change, positive = activation” value is inactive: -16.4%. As to `Cc1noc2ncnc(N3CCN(c4cccc(C(F)(F)F)c4)CC3)c12`, the “activity change, positive = activation” value was inactive: -45.1%. Same read-out and setting: for `COc1ccc(N2CCN(C(CNS(=O)(=O)c3ccc(OC)c(C)c3)c3ccco3)CC2)cc1` (stereo not drawn) the value was inactive: -33.1%.

Consider `Cc1cccn2c(=O)c3cc(C(=O)NCC(C)C)sc3nc12`, for which the “activity change, positive = activation” value is inactive: -7.4%. Consider `COc1ccc(C)cc1-n1c(-c2ccc(Cl)cc2)cc2c1CC(C)(C)CC2=O`, for which the “activity change, positive = activation” value is inactive: -9.23%. For `COc1ccc(-c2nc(Cn3c(=O)cc(C)c4c(C)nn(-c5ccccc5)c43)c(C)o2)cc1OC`, the “activity change, positive = activation” value is inactive: -7.57%. Take `Nc1c(C(=O)Nc2ccccc2Br)sc2nc(-c3cccs3)ccc12`: the “activity change, positive = activation” value was inactive: -10.2%. For the compound `O=C(CSc1nc2c([nH]c3ccccc32)c(=O)n1-c1ccccc1)Nc1ccc2c(c1)OCO2`, the “activity change, positive = activation” value is inactive: -23.8%. With `CN1CCN(CCC(=O)N2c3ccccc3Sc3ccc(C(F)(F)F)cc32)CC1`, the “activity change, positive = activation” value is inactive: -21.6%. Still for that read-out and setting: the same measure for `CCc1ccc(OCC2c3cc(OC)c(OC)cc3CCN2C(=O)c2ccc(S(=O)(=O)N3CCCC3)cc2)cc1` (stereo not drawn): inactive: -18.1%. As to `CCn1cc(C(=O)NCCCOC(C)C)c(=O)c2cc(S(=O)(=O)N3CCOCC3)ccc21`, the “activity change, positive = activation” value was inactive: -9.35%.

For the origin of these results see PubChem BioAssay AID1508624 (National Center for Advancing Translational Sciences (NCATS), 2021).
